The target in experiment [1] is S100A6 C3S-Y84C double mutant (murine, UniProt P14069, C3S | Y84C). The experiment is described as follows: SEC; 600 µg RAGE VC1C2 mixed with a 10-fold molar excess of S100A6 in 20 mM Tris-HCl pH 7.5, 200 mM NaCl, 5 mM CaCl2, 400 µl; 3 hours at 37°C; Superdex 75 Increase 10/300 GL at room temperature in 20 mM Tris-HCl pH 7.5, 200 mM NaCl; non-reducing; fractions analysed by SDS-PAGE. Particulars: both partners purified.

The next experiment has as its target WT murine S100A6 (murine, UniProt P14069). Described as above. To be noted: both partners purified.

B1: human RAGE VC1C2 ectodomain (hRAGE-VC1C2; […]) (domain or fragment)
chain: not shown
notes: receptor for advanced glycation end-products (RAGE), human, VC1C2 ectodomain, […]; also called RAGE VC1C2 fragment; RAGE full-length ectodomain; source: recombinant; expression and purification as previously described [31]
As to B1, the binding result (in experiment [1]; with WT murine S100A6) was “binds” in each case.

The values above are taken from doi:10.1101/2025.07.25.666771, “Importance of cysteines for the binding of S100A6 to the RAGE receptor – Towards a first molecular model for S100 covalent dimerization” (bioRxiv, 2025).
